Measured values reported in paper PMC4336329 (PLoS ONE, 2015).
The whole screen tested about 310,000 compounds, of which about 14,000 (4.5%) showed an effect of 50% or more. Effects have a minus sign here. This is one part of the list.

Target: human ether-à-go-go-related gene (hERG) potassium channel (human, UniProt Q12809)
Test: primary screen, population patch clamp on CHO cells stably expressing hERG
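Also: peak tail current of the secondary pulse compared with the same well before compound.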

Chain of human ether-à-go-go-related gene (hERG) potassium channel (Q12809 whole entry, looked up): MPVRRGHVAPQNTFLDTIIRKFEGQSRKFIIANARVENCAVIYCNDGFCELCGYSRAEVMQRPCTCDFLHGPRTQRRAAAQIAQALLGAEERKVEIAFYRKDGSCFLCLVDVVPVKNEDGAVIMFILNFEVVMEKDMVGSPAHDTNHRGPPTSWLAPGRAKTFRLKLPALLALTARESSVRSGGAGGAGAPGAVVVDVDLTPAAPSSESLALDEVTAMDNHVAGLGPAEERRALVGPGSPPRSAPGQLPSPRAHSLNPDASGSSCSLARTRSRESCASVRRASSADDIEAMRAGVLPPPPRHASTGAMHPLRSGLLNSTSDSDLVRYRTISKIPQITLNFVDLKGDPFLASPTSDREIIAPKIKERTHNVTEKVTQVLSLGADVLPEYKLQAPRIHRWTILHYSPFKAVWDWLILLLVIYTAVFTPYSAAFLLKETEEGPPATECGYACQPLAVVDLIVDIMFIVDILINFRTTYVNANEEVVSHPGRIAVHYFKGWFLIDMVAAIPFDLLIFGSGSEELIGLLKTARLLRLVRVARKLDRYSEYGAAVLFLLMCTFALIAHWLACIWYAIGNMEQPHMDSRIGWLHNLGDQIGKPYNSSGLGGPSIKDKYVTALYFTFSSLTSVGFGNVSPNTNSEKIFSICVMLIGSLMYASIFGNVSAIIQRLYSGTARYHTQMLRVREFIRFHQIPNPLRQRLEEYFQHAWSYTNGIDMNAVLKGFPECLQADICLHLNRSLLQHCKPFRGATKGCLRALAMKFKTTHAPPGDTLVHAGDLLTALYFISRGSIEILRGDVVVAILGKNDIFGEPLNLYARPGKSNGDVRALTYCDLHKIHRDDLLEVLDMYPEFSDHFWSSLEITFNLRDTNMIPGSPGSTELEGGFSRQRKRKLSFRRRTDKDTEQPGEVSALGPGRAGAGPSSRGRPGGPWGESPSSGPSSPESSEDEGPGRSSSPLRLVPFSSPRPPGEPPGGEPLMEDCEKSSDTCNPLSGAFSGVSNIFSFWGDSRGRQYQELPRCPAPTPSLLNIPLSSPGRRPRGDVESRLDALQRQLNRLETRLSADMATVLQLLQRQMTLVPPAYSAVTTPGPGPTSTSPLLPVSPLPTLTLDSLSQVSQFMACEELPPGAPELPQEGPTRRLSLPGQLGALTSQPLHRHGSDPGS

SMILES	hERG current change (%, negative = inhibition) at 10uM [%]
COc1ccccc1NC(=O)Nc1ncccc1C	-1.09
Cc1ccc(Cn2c(N3CCN(C)CC3)nc3c2c(=O)[nH]c(=O)n3C)cc1	-14.9
C/C(=N\NC(=O)c1ccc(F)cc1)c1cccc(NC(=O)c2cccc(F)c2)c1	21.3
COc1cc(C(=O)NCCOc2ccccc2C)cc(OC)c1OC	11.3
Cl.c1ccc(CSC2=NCCCN2)cc1	13.9
COc1ccc(CC(=O)NNC(=O)c2cccs2)cc1	0.706
COc1ccc(CCNC(=O)COc2ccc(S(=O)(=O)N3CCCC3)cc2)cc1	-6.68
Cc1cccc(C(=O)N[C@H](C(=O)Nc2nc3ccc(S(C)(=O)=O)cc3s2)C(C)C)c1	-20.5
O=C(c1ccccc1Cl)N1CCC(N2CCC(C(=O)N3CCCC3)CC2)CC1	-12.4
O=C(Nc1cccc(C(F)(F)F)c1)/C(=C\c1ccco1)NC(=O)c1cccs1	-19.2
O=C(Cn1cnc2ccccc21)Nc1ccc(SC(F)F)cc1	-43.6
CCOC(=O)N1CCN(C(=O)COc2ccc(S(=O)(=O)Nc3ccc(OCC)cc3)cc2)CC1	5.64
CCC(Cc1ccccc1)NS(=O)(=O)c1csc(C(N)=O)c1 (stereo not drawn)	16.6
COc1ccc(N2C(=O)CC(N3CCN(c4ccccc4)CC3)C2=O)cc1 (stereo not drawn)	8.93
Cc1ccccc1C(=O)Nc1ccc(S(=O)(=O)N2CC(C)OC(C)C2)cc1 (stereo not drawn)	5.76
Cc1cc(C)cc(OCC(=O)NC2CCCc3ccccc32)c1 (stereo not drawn)	-1.2
COC(=O)Nc1ccc2c(c1)N(C(=O)CCCl)c1ccccc1S2	-8.44
COc1ccc(C)cc1N(C(=O)c1ccc(F)cc1)c1nc2ccccc2s1	3.1
CN(Cc1ccccc1)C1CCNCC1.Cl	19.8
Cn1cc(C(=O)NS(=O)(=O)Nc2ccc(Br)cn2)c2ccccc21	5.91

SMILES	hERG current change (%, negative = inhibition) at 10uM [%]
COCCNc1nc(CSc2ccccc2)nc2sc(C)c(C)c12	-5.97
O=C(CC1CCCC1)N1CCN(S(=O)(=O)c2ccccc2)CC1	-36.5
O=C(CCN1C(=O)c2ccccc2C1=O)N1CCN(c2ccccn2)CC1	-24.4
OC(Cn1cccn1)c1ccccc1 (stereo not drawn)	22.1
O=C(Nc1ccc2c3c(cccc13)CC2)c1ccco1	-9.54
Cc1ccc2c(Cl)c(C(=O)Nc3cc(C)on3)sc2c1	4.55
CCCCNC(=O)CSc1nc2ccccc2c(=O)n1C1CCCC1	-38.1
CCS(=O)(=O)Nc1ccc(-c2cc(-c3ccccc3)c3cc(C)ccc3n2)cc1	0.812
CCCn1c(NC(=O)C2CCN(S(=O)(=O)c3cccs3)CC2)nc2ccccc21	-68.8
Cc1cc(C(=O)N2CCCC(N3CCN(c4cccc(Cl)c4)CC3)C2)nn1C (stereo not drawn)	-10.5
CCOC(=O)CSc1nnc(-c2cc(OC)c(OC)c(OC)c2)o1	12.1
COc1ccc(OC)c(N(CC(=O)O)S(=O)(=O)c2ccc(OC)c(OC)c2)c1	5.94
S=C(c1ccc(-c2ccc(Br)cc2)o1)N1CCOCC1	14
CC(=O)N1CN(C2CC(C)(C)NC(C)(C)C2)Cc2c1sc1c2CCCC1	6.77
COC(=O)c1nc(NC(=S)NC(=O)c2cccs2)sc1C	13.1
CCn1nc(NC(=O)C(C)C)c2cc3cccc(C)c3nc21	22.9
O=C(CCc1ccccc1)N=C1SC2CS(=O)(=O)CC2N1c1ccc(F)cc1 (stereo not drawn)	11.6
O=C1CCCCN1CCc1c[nH]c2ccccc12	11.8
CC(N=C(NC#N)Nc1ccncc1)C(C)(C)C (stereo not drawn)	-6.9
COc1ccccc1NC(=O)CSc1nnc(NC(=O)C2CCC2)s1	12.9

SMILES	hERG current change (%, negative = inhibition) at 10uM [%]
Cc1ccc(OCC(=O)NCC(=O)Nc2ccc(F)cc2)c([N+](=O)[O-])n1	-40.3
CCc1ccccc1NC(=O)CCc1c(C)nc(SC)nc1C	10.8
O=C(NCc1ccccc1Cl)C(=O)c1cn(CC(=O)N2CCOCC2)c2ccccc12	15.2
O=C(CCCCCl)Nc1c2c(nc3ccccc13)CCC2	-23.6
CC(=O)Nc1ccc(NCc2ccc(C)s2)cc1	-3.79
CC(NC(=O)CN1CCCC1)c1ccccc1 (stereo not drawn)	21
C=CCN1C(=O)C2(OCCO2)c2cc(C)ccc21	18.1
CC(C)NC(=O)c1onc(CSc2cccc3ccccc23)c1C(=O)O	34.5
CC(C)CN1CCC(=O)N(CCSc2ccccc2)CC1	-15.4
Nc1ccc2c(c1)C(=O)Cc1ccccc1S2	9.05
CCc1c(O)nc(SCC(=O)NCc2ccco2)[nH]c1=O	-2.46
Cc1ccc2[nH]c(=O)c(CN(CCCN(C)C)C(=O)Nc3ccc(F)cc3)cc2c1	-70.7
O=C(Cn1cccc1C(=O)c1ccccc1)NCCCc1ccccc1	-8.33
O=C(CCc1ccccc1)NNC(=O)c1cc(Cl)ccc1O	15.1
N#C/C(=C(/O)CCl)c1nnc2n1CCCCC2	11.9
COc1cccc(CNc2nn[nH]n2)c1OC	13.3
CC(C)c1ccc(-c2nc3c([nH]2)c(=O)n(C)c(=O)n3C)cc1	11.2
COCCn1c(SCC(=O)N2CCCCC2)nc2c(c1=O)SC(C)C2 (stereo not drawn)	9.29
C=CCN(CC=C)C(=O)c1ccncc1	1.91
CC1(C(=O)NCc2ccc(F)cc2)Oc2ccccc2NC1=O (stereo not drawn)	-0.471
